Screen size: about 350,000 compounds; about 31,000 (8.9%) were called active. Inconclusive results, whose numbers are uncertain, are shown with a selection of clear calls. Calls come from the whole dose curve; as a rule, active = well fitted inhibition curve with a large enough effect; inconclusive = small, poorly fitted or top-dose-only effect; inactive = no such curve, though single readings can be large or run the other way. Potencies beside an inconclusive call are fits to weak or partial responses and may not hold up.
Target: Histone-lysine N-methyltransferase EHMT2 (Homo sapiens) (UniProt Q96KQ7)
UniProt Q96KQ7, sequence (Q96KQ7 whole entry, looked up): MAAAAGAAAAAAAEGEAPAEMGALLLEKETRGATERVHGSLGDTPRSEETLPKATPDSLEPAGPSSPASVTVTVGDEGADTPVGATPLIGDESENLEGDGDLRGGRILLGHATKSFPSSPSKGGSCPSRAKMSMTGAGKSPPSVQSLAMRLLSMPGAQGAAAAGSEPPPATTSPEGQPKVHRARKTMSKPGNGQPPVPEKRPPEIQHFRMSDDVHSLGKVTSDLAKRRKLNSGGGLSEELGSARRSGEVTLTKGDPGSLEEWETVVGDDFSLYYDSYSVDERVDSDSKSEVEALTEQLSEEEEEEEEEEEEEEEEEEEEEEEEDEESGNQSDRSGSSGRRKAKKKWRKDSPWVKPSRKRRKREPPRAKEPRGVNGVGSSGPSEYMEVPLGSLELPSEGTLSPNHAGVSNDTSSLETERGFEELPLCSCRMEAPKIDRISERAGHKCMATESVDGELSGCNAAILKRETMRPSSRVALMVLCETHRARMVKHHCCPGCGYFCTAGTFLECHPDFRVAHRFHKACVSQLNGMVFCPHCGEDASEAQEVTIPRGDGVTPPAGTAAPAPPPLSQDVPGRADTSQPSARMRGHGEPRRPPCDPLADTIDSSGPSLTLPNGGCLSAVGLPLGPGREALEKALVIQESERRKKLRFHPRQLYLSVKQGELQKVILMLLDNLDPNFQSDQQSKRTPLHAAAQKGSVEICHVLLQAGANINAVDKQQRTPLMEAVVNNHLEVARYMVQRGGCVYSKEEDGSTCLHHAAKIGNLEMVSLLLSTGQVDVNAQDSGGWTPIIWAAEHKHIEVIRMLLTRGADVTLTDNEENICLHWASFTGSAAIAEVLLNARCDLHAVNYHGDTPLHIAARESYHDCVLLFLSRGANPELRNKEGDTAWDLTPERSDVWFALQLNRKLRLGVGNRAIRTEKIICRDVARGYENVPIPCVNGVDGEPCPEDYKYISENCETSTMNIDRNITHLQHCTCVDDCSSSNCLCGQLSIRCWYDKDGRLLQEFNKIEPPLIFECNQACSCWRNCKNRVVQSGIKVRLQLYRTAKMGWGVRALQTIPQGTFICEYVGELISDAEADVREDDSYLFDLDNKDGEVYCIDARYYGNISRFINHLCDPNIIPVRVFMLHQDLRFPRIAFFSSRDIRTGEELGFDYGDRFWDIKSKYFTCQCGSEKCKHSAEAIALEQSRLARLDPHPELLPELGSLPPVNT
Test: qHTS Assay for Inhibitors of Histone Lysine Methyltransferase G9a; note: nearly all actives have a fitted effect of over 75% in size
Conditions: G9a H3K9 monomethylation, AlphaScreen, 2 h; activity, negative = inhibition: at 59 µM (top of the series) unless noted
How it was run: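 Chemiluminescent proximity detection of H3K9 monomethylation, read after 10 min bead incubation in the dark. Reaction: 20 nM G9a, 500 nM biotin-H3K9 peptide, 20 uM SAM cofactor, 2 h, room temperature, following 15 min enzyme-compound preincubation.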
% is set by controls: 0 for no effect and ±100 for the full control effect; potency is the fitted concentration of half-maximal effect; tags give direction and shape of the fitted curve.

Compound	Potency	activity, negative = inhibition
O=C(CCl)Nc1cc(-c2ccccc2)nn1-c1ccccc1	inconclusive: 10 µM [inhibitor, partial curve, poor fit]	
CC(C(=O)Nc1ccccc1C(F)(F)F)N1CCN(C)CC1 (stereo not given)		inactive: 3.1% [at 0.501 µM]
CCOC(=O)C1CCCN(C2CC(=O)N(c3cccc(C(F)(F)F)c3)C2=O)C1 (stereo not given)		inconclusive: -135% [inhibitor]
CCC(C(=O)O)N1C(=O)/C(=C/c2cccn2C)SC1=S (stereo not given)	inconclusive: 39.8 µM [inhibitor, single point]	
CCN(CC)c1ccc(C2C(C(=O)OC)=C(C)NC(C)=C2C(=O)OC)cc1	inconclusive: 39.8 µM [inhibitor, partial curve, poor fit]	
O=S(=O)(c1cccc(COc2c(Cl)cccc2Cl)c1)N1CCOCC1		inactive: 18.8% [at 102 µM]
CCN(CC)CC(=O)Nc1c(C#N)cnn1-c1ccccc1		inconclusive: -62.9% [inhibitor]
COc1cccc(/C=N/NC(=S)Nc2cccc(C(=O)O)c2)c1O	active: 39.8 µM	
CCOc1ccc2c(c1)C(c1ccccc1)=NNC(c1ccccc1)=N2	inconclusive: 39.8 µM [inhibitor, single point]	
CC1(C)C2CC[C@]1(C)[C@@H](O)C2		inactive: 2.74% [at 12.7 µM]
Cc1ccc(CNC(=O)CSCc2ccccc2C)cc1		inactive: 6.33%
COc1ccc(N2C(N)=C(C#N)C(c3cccnc3)C3=C2CC(C)(C)CC3=O)cc1 (stereo not given)	active: 11.2 µM	
COc1ccc(NC(=O)CSc2ccc(C)cc2)cc1		inactive: -30.1%
CCOC(=O)C1CCN(CC(=O)Nc2ccc(S(=O)(=O)N3CCC(C)CC3)cc2)CC1		inactive: -8.35% [at 102 µM]
CN(Cc1ccc(OC(F)F)cc1)C(=O)c1ccc2c(=O)n3c(nc2c1)CCC3		inactive: 0.366% [at 102 µM]
COc1ccc(-n2c(/C=C/c3cccc4ccccc34)nc3ccccc3c2=O)cc1OC		inactive: 11.8%
Cc1cc(C)c2c(c1)C1C=CCC1C(c1ccc(S(=O)(=O)N3CCOCC3)cc1)N2 (stereo not given)	active: 8.91 µM	
Cc1cccc(CSCCNC(=O)C2CCN(S(=O)(=O)Cc3ccccc3)CC2)c1	inconclusive: 39.8 µM [inhibitor, single point]	
COc1ccc(Cl)cc1NC(=O)CSc1sc2c(O)cc(=O)[nH]c2c1C#N	inconclusive: 79.4 µM [inhibitor, single point]	
CSc1sc(C(=O)NCC2CC2)cc1S(=O)(=O)C(C)C	inconclusive: 89.1 µM [inhibitor, partial curve, poor fit]	
CCOCCCNC(=S)N1CCC(NC(=O)c2ccco2)CC1	inconclusive: 15.8 µM [inhibitor, partial curve, poor fit]	
CN(C)c1nc(-c2ccc([N+](=O)[O-])cc2)cs1	inconclusive: 22.4 µM [inhibitor, single point]	
Cc1ccc(CNC(=O)c2ccc(Cl)c(S(N)(=O)=O)c2)n1C	inconclusive: 89.1 µM [inhibitor, single point]	
O=C(Nc1nc2ccccc2s1)C1CCCN1S(=O)(=O)c1ccc(Cl)cc1 (stereo not given)		inactive: -0.899%
O=C(O)CSc1cccc2cccc(C(=O)O)c12	inconclusive: 22.4 µM [inhibitor, full curve, poor fit]	

Compound	Potency	activity, negative = inhibition
CCC(C)NC(=O)COC(=O)c1ccc(Cl)cc1O (stereo not given)	inconclusive: 44.7 µM [inhibitor, partial curve, poor fit]	
CC(C)c1ccc(C2C(C(=O)c3ccco3)=C(O)C(=O)N2CC2CCCO2)cc1 (stereo not given)	active: 44.7 µM	
Cc1ccc(S(=O)(=O)N2CCN(S(=O)(=O)c3ccccc3)C2c2ccc(N(C)C)cc2)cc1 (stereo not given)	active: 8.91 µM	
Cc1cccc(N(C(=O)CS(=O)CC(=O)Nc2ccc3c(c2)OCO3)C(C)C(=O)NC2CCCC2)c1C (stereo not given)	active: 56.2 µM	
CCOC(=O)c1cc(CC)sc1NC(=O)c1cc([N+](=O)[O-])ccc1N1CCOCC1	active: 11.2 µM	
S=c1[nH]nc(Cn2nnc3ccccc32)n1-c1ccccc1	active: 31.6 µM	
Cc1ccc2c(c1)N(CC(=O)Nc1ccccc1C(F)(F)F)C(=O)c1cccnc1O2		inactive: -7.71%
CC(C)N(CC#CCC(O)(c1ccccc1)c1ccccc1)CCO	active: 12.6 µM	
O=C(NC(=O)c1ccc(F)cc1F)Nc1ccc(Cl)cc1	active: 44.7 µM	
Cn1c(=S)[nH]c2cccnc21	inconclusive: 1.41 µM [inhibitor, partial curve]	
Cc1ccc(S(=O)(=O)N2CCCCC2)cc1NC(=O)CNc1ccc(C(F)(F)F)cc1	active: 56.2 µM	
CCC(CO)Nc1ncc([N+](=O)[O-])cc1C#N (stereo not given)		inactive: 7.63%
Cc1[nH]c2ccc(F)cc2c1CCNC(=O)C1CCCCC1C(=O)OCC(F)(F)F (stereo not given)	inconclusive: 79.4 µM [inhibitor, single point]	
CN(CC(=O)Nc1cccc(F)c1)C(=O)CSc1ccccc1F	inconclusive: 79.4 µM [inhibitor, single point]	
Cc1ccc(C)c(NC(=O)CN(C)C(=O)c2ccc3c(=O)n4c(nc3c2)CCC4)c1	inconclusive: 3.55 µM [inhibitor, single point]	
CCN1CCN(c2nc(C)nc3c2sc(=S)n3C)CC1	active: 6.31 µM	
COc1ccc(NCc2nnc(-c3ccccc3)o2)cc1		inactive: 36.7% [at 102 µM]
CC(C)C1C2=C(CC(C)(C)CC2=O)ON1c1ccccc1 (stereo not given)	inconclusive: 3.55 µM [inhibitor, full curve]	
Cc1ncc(N=Nc2ccccc2Cl)c(-c2ccccc2)n1	inconclusive: 20 µM [inhibitor, single point]	
Cc1nc(-c2ccc3c(c2)OCCCO3)cs1	inconclusive: 79.4 µM [inhibitor, partial curve, poor fit]	
CCOC(=O)C(NC(=O)CC(C)C)(Nc1sc2c(c1C(N)=O)CCCC2)C(F)(F)F (stereo not given)	inconclusive: 79.4 µM [inhibitor, single point]	
COc1cc(C(N)=O)cc(Br)c1OC	inconclusive: 1.78 µM [inhibitor, partial curve, poor fit]	
CCn1c(SCC(=O)Nc2ccccc2C)nnc1-c1ccccc1O	inconclusive: 25.1 µM [inhibitor, single point]	
COc1cccc(CNC(=O)CN2c3cccc4cccc(c34)S2(=O)=O)c1	inconclusive: 89.1 µM [inhibitor, partial curve, poor fit]	
Cc1sc2ncnc(NCCN3CCOCC3)c2c1C	active: 8.91 µM	

Compound	Potency	activity, negative = inhibition
O=C(N/N=C/c1ccc(O)c(O)c1)c1ccc(-n2cnnn2)cc1	inconclusive: 3.16 µM [inhibitor, partial curve, poor fit]	
CC(=O)c1sc(Nc2nc3cc4c(cc3s2)OCO4)nc1C	inconclusive: 44.7 µM [inhibitor, partial curve]	
COc1ccc(C(=O)NC2CC2)cc1OC1CCN(Cc2ccc(F)cc2)CC1		inactive: -2.88% [at 102 µM]
CCN(CC)CCn1c(=S)[nH]c2cc(C(=O)NCc3ccccc3Cl)ccc2c1=O	inconclusive: 50.1 µM [inhibitor, partial curve, poor fit]	
O=[N+]([O-])c1cc(C(F)(F)F)ccc1NN=C1CCCC1	inconclusive: 22.4 µM [inhibitor, partial curve, poor fit]	
O=C(Nc1ccc(Cl)cc1)c1cnn2c1NC(c1ccccc1)=CC2c1ccccc1 (stereo not given)	active: 10 µM	
Nc1cc(Oc2cccnc2)cc([N+](=O)[O-])c1		inconclusive: -80.1% [inhibitor] [at 12.7 µM]
Oc1c(N=NC(=S)Nc2ccccc2F)c2ccccc2n1Cc1ccc(Cl)cc1	active: 10 µM	
O=C(Cn1c(=O)n(-c2ccccc2)c(=O)c2c3c(sc21)CCC3)c1ccc(F)cc1		inactive: -23.2%
Cc1ccc2c(c1)CCCN2CC(=O)Nc1cc(S(=O)(=O)N2CCCC2)ccc1Cl	inconclusive: 8.91 µM [inhibitor, single point]	
COc1ccc(C2NC(=O)NC(C)=C2C(C)=O)cc1 (stereo not given)	active: 12.6 µM	
CSc1ccc(C2c3[nH]c4ccccc4c3CCN2C(=O)c2ccnn2C)cc1 (stereo not given)	active: 39.8 µM	
CC(C)(C)C(=O)Nc1nnc(SCC(=O)NC2CCCC2)s1		inactive: 11.3% [at 102 µM]
Cc1ccc(NC(=O)CC2C(=O)OCC3CCCCN32)cc1Cl (stereo not given)	inconclusive: 35.5 µM [inhibitor, single point]	
COc1ccc(CNC(=O)COC(=O)CC2CCCC2)cc1		inactive: 13.3%
O=C(Nc1ccccc1)c1cnc(N2CCCCC2)c2ccccc12		inactive: 48.5%
CCCCNC(=O)c1ccc2c(c1)N(CC)C(=O)c1ccccc1S2(=O)=O	inconclusive: 39.8 µM [inhibitor, single point]	
Cc1nc2ccccc2c(=O)n1NC(=O)c1ccc(Cl)c([N+](=O)[O-])c1		inactive: -4.51% [at 2.33 µM]
Cc1ccc(S(=O)(=O)N(Cc2cccc(F)c2)C(=O)N2CCN(C)CC2)cc1	inconclusive: 79.4 µM [inhibitor, partial curve, poor fit]	
COc1cccc(CN2C(=O)c3ccccc3Sc3ccc(C(=O)NCc4ccccc4)cc32)c1		inactive: -0.658%
Cc1ccc2c(c1)[C@H]1OCC[C@H]1[C@@H](c1ccncc1)N2	inconclusive: 89.1 µM [inhibitor, single point]	
Cc1ccc(S(=O)(=O)NC2OC(=O)C(Cl)=C2Cl)cc1 (stereo not given)		inconclusive: -69.3% [inhibitor]
O=C1C(N2CCOCC2)=C(n2nnc3ccccc32)C(=O)c2ccccc21	active: 39.8 µM	
CCOC(=O)c1scc(-c2ccccc2)c1S(=O)(=O)N1CCN(c2ccc(Cl)cc2)CC1	active: 12.6 µM	
Clc1nc2ccccc2cc1/C=N/Nc1nc2ccccc2[nH]1		inactive: -0.698%

Source: PubChem BioAssay AID504332 (National Center for Advancing Translational Sciences (NCATS), 2011)
